Results: ChEMBL document CHEMBL4888484, “Replenishing the malaria drug discovery pipeline: Screening and hit evaluation of the MMV Hit Generation Library 1 (HGL1) against asexual blood stage Plasmodium falciparum ,using a nano luciferase reporter read-out” (2022)
Out of some 150,000 compounds screened, about 540 (0.36%) showed an effect of 50% or more. This is one part of the list.

System: Plasmodium falciparum
Test: Primary screen in NF54 nanoGlo assay, in single point, at 2uM, 72h; a lower Z score goes with more inhibition
Format: functional, Erythrocyte
Conditions: timepoint 72 hour

SMILES	% Inhibition [%]	Z score
CCn1nc(C)c2ccnc(N3CCC(C(=O)N4CCC5(CC4)OCCO5)CC3)c21	-17	2.74
Cc1ccc(F)c(CNC(=O)c2cn(C[C@H]3CCCNC3)nn2)c1F	3	-0.39
CCOc1ccc(NC(=O)CN2CC=C(c3cnn(C)c3)CC2)cc1	-9	0.93
Cc1ncc(C)c(N2CCC3(CCCN(C)C3)CC2)n1	-9	1.22
O=c1onc(-c2ccccn2)n1Cc1cccc2ccccc12	-11	1.47
CC(C)c1ncc(CN2CCN3CCC[C@H]3C2)cn1	4	-0.79
COc1ccc(N(C(=O)c2ccc(C)cc2)C2(C(=O)NCc3ccccc3)CCN(C(C)=O)CC2)cc1	-9	1.26
c1ccc2c(c1)CCCc1ccccc1C2OCCN1CCOCC1	-18	2.08
CCn1ccnc(N2CCN(C)CC2)c1=O	-2	0.24
Cc1nc(CN2CCOC3(CCCC3)C2)sc1C	-5	0.77
O=C(NC[C@H]1C[C@@H]2CC[N@]1C[C@@H]2CN1CCN(c2ccc(F)cc2)CC1)c1ccco1	-2	0.29
Cc1cccc(OCC(=O)N2CCN(CC3=CCCOC3)CC2)c1C	-4	0.41
O=C(NCC1CCN(C(=O)Oc2ccccc2)CC1)Nc1ccccc1	-11	1.68
CCCCOC(=O)N1CCN2CCN(C)C[C@H]2C1	3	-0.41
CC(C)(Oc1cc(Cl)ccc1Cl)C(=O)N1CCC2(CC1)OCCO2	-12	1.63
CN(C(=O)Oc1c(Cl)cc(Cl)c2ccccc12)c1ccccc1	6	-1.12
CC(NCc1ccc(O)nc1)C(c1ccccc1)N(C)C (stereo not drawn)	-10	0.98
COc1ccnc(CN2CCN3C(=O)OC[C@H]3C2)c1OC	10	-1.22
COc1ccc(N2C[C@@H](C(=O)N3CCC4(CC3)OCCO4)CC2=O)cc1	0	0.04
CC(C)n1ccc(C(=O)Nc2ccc(OCC3CC3)cc2)n1	2	-0.27
CCNc1ccnc(-c2cccc(C(=O)N[C@H]3COC[C@@H]3N3CCCC3)c2)n1	-12	2.23
COc1ccc(Cl)cc1N1C(=O)[C@@H]2C[C@H]1CN2Cc1cccnc1	-2	0.21
Cc1cc(C)cc(CC(C)NC(=O)N[C@@H](C)C(=O)N(C)C)c1 (stereo partly drawn)	-7	0.92
O=C(O)[C@@]12COc3ccccc3[C@@H]1CN(CCS(=O)(=O)c1ccccc1)C2	-17	2.69
